# Measured values published in the supplement of paper PMC8728848.
# This is one part of the list.
# B1: SSR2 (Sclerotium rolfsii) (protein)
# chain: MVYKITVRVYQTNPDAFFHPVEKTVWKYANGGTWSITDDQHVLTMGGSGTSGTLRFHADNGESFTATFGVHNYKRWCDIVTNLAADETGMVINQQYYSQKNREEARERQLSNYQVKNAKGRNFQIVYTEAEGNDLHANLIIG
# Key:
# Assay in all cases: glycan array binding signal (z-score within array); higher = stronger binding
# Details in all cases: glycan notation: IUPAC condensed, linker removed
# [1] = target: Gal(b1-4)GlcNAc(b1-3)Gal(b1-4)GlcNAc(b1-3)[Gal(b1-4)GlcNAc(b1-3)Gal(b1-4)GlcNAc(b1-6)]GalNAc
# Summary of the method: (§1)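 The Consortium for Functional Glycomics database supplied 3228 glycan arrays, of which those lacking an available protein sequence were dropped. The binding signal, a within-array Z-score, was averaged across arrays of the same protein sequence and across linkers. Negative scores can be read as non-binding.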
# [2] = target: Gal(b1-4)GlcNAc(b1-3)Gal(b1-4)GlcNAc(b1-6)[Gal(b1-3)]GalNAc
# Summary of the method: as §1
# [3] = target: Gal(b1-4)GlcNAc(b1-3)Gal(b1-4)[Fuc(a1-3)]GlcNAc(b1-3)Gal(b1-4)[Fuc(a1-3)]GlcNAc
# Summary of the method: as §1
# [4] = target: Gal(b1-4)GlcNAc(b1-3)GalNAc
# Summary of the method: as §1
# [5] = target: Gal(b1-4)GlcNAc(b1-3)[Fuc(a1-3)GlcNAc(b1-6)]Gal(b1-4)Glc
# Summary of the method: as §1
# [6] = target: Gal(b1-4)GlcNAc(b1-3)[Gal(b1-4)GlcNAc(b1-6)]Gal(b1-4)GlcNAc
# Summary of the method: as §1
# [7] = target: Gal(b1-4)GlcNAc(b1-3)[GlcNAc(b1-6)]Gal(b1-4)GlcNAc
# Summary of the method: as §1
# [8] = target: Gal(b1-4)GlcNAc(b1-6)Gal(b1-4)GlcNAc
# Summary of the method: as §1
# [9] = target: Gal(b1-4)GlcNAc(b1-6)GalNAc
# Summary of the method: as §1
# [10] = target: Gal(b1-4)GlcNAc(b1-6)[Gal(b1-3)]GalNAc
# Summary of the method: as §1
# [11] = target: Gal(b1-4)GlcNAc(b1-6)[Gal(b1-4)GlcNAc(b1-3)]GalNAc
# Summary of the method: as §1
# Gal(b1-4)GlcNAc6P = target: Gal(b1-4)GlcNAc6P
# Summary of the method: as §1
# Gal(b1-6)Gal = target: Gal(b1-6)Gal
# Summary of the method: as §1
# Gal3S(b1-3)GalNAc = target: Gal3S(b1-3)GalNAc
# Summary of the method: as §1
# Gal3S(b1-3)GlcNAc = target: Gal3S(b1-3)GlcNAc
# Summary of the method: as §1
# [12] = target: Gal3S(b1-3)[Fuc(a1-4)]GlcNAc
# Summary of the method: as §1
# Gal3S(b1-4)Glc = target: Gal3S(b1-4)Glc
# Summary of the method: as §1
# Gal3S(b1-4)Glc6S = target: Gal3S(b1-4)Glc6S
# Summary of the method: as §1
# Gal3S(b1-4)GlcNAc = target: Gal3S(b1-4)GlcNAc
# Summary of the method: as §1
# [13] = target: Gal3S(b1-4)[Fuc(a1-3)]Glc6S
# Summary of the method: as §1
# [14] = target: Gal3S(b1-4)[Fuc(a1-3)]GlcNAc
# Summary of the method: as §1
# [15] = target: Gal3S(b1-4)[Fuc(a1-3)]GlcNAc6S
# Summary of the method: as §1
# Gal3S4S(b1-4)GlcNAc = target: Gal3S4S(b1-4)GlcNAc
# Summary of the method: as §1
# Gal3S6S(b1-4)GlcNAc = target: Gal3S6S(b1-4)GlcNAc
# Summary of the method: as §1
# Gal3S6S(b1-4)GlcNAc6S = target: Gal3S6S(b1-4)GlcNAc6S
# Summary of the method: as §1
# Gal4S(b1-4)GlcNAc = target: Gal4S(b1-4)GlcNAc
# Summary of the method: as §1
# Gal4S6S(b1-4)GlcNAc = target: Gal4S6S(b1-4)GlcNAc
# Summary of the method: as §1
# Gal6P(b1-4)GlcNAc = target: Gal6P(b1-4)GlcNAc
# Summary of the method: as §1
# Gal6S(b1-3)GlcNAc = target: Gal6S(b1-3)GlcNAc
# Summary of the method: as §1
# Gal6S(b1-3)GlcNAc6S = target: Gal6S(b1-3)GlcNAc6S
# Summary of the method: as §1
# Gal6S(b1-4)Glc = target: Gal6S(b1-4)Glc
# Summary of the method: as §1
# Gal6S(b1-4)Glc6S = target: Gal6S(b1-4)Glc6S
# Summary of the method: as §1
# Gal6S(b1-4)GlcNAc = target: Gal6S(b1-4)GlcNAc
# Summary of the method: as §1
# Gal6S(b1-4)GlcNAc6S = target: Gal6S(b1-4)GlcNAc6S
# Summary of the method: as §1
# GalNAc(a1-3)Gal = target: GalNAc(a1-3)Gal
# Summary of the method: as §1
# GalNAc(a1-3)GalNAc = target: GalNAc(a1-3)GalNAc
# Summary of the method: as §1
# [16] = target: GalNAc(a1-3)GalNAc(b1-3)Gal(a1-4)Gal(b1-4)Glc
# Summary of the method: as §1
# [17] = target: GalNAc(a1-3)GalNAc(b1-3)Gal(a1-4)Gal(b1-4)GlcNAc
# Summary of the method: as §1
# GalNAc(b1-3)Gal = target: GalNAc(b1-3)Gal
# Summary of the method: as §1
# [18] = target: GalNAc(b1-3)Gal(a1-4)Gal(b1-4)GlcNAc
# Summary of the method: as §1
# [19] = target: GalNAc(b1-3)Gal(a1-4)Gal(b1-4)GlcNAc(b1-3)Gal(b1-4)Glc
# Summary of the method: as §1
# [20] = target: GalNAc(b1-3)Gal(a1-6)Gal(b1-4)Glc
# Summary of the method: as §1
# GalNAc(b1-3)GalNAc = target: GalNAc(b1-3)GalNAc
# Summary of the method: as §1
# GalNAc(b1-3)GlcNAc = target: GalNAc(b1-3)GlcNAc
# Summary of the method: as §1
# GalNAc(b1-4)Gal(b1-4)Glc = target: GalNAc(b1-4)Gal(b1-4)Glc
# Summary of the method: as §1
binder,measurement,setting,value
B1,glycan array binding signal (z-score),[1],-0.247
same,glycan array binding signal (z-score),[2],0.567
same,glycan array binding signal (z-score),[3],-0.284
same,glycan array binding signal (z-score),[4],-0.281
same,glycan array binding signal (z-score),[5],-0.263
same,glycan array binding signal (z-score),[6],-0.304
same,glycan array binding signal (z-score),[7],0.558
same,glycan array binding signal (z-score),[8],-0.301
same,glycan array binding signal (z-score),[9],-0.278
same,glycan array binding signal (z-score),[10],1.31
same,glycan array binding signal (z-score),[11],-0.288
same,glycan array binding signal (z-score),Gal(b1-4)GlcNAc6P,-0.276
same,glycan array binding signal (z-score),Gal(b1-6)Gal,-0.29
same,glycan array binding signal (z-score),Gal3S(b1-3)GalNAc,4.27
same,glycan array binding signal (z-score),Gal3S(b1-3)GlcNAc,-0.282
same,glycan array binding signal (z-score),[12],-0.279
same,glycan array binding signal (z-score),Gal3S(b1-4)Glc,-0.273
same,glycan array binding signal (z-score),Gal3S(b1-4)Glc6S,-0.275
same,glycan array binding signal (z-score),Gal3S(b1-4)GlcNAc,-0.273
same,glycan array binding signal (z-score),[13],-0.252
same,glycan array binding signal (z-score),[14],-0.29
same,glycan array binding signal (z-score),[15],-0.29
same,glycan array binding signal (z-score),Gal3S4S(b1-4)GlcNAc,-0.288
same,glycan array binding signal (z-score),Gal3S6S(b1-4)GlcNAc,-0.287
same,glycan array binding signal (z-score),Gal3S6S(b1-4)GlcNAc6S,-0.27
same,glycan array binding signal (z-score),Gal4S(b1-4)GlcNAc,-0.297
same,glycan array binding signal (z-score),Gal4S6S(b1-4)GlcNAc,-0.279
same,glycan array binding signal (z-score),Gal6P(b1-4)GlcNAc,-0.287
same,glycan array binding signal (z-score),Gal6S(b1-3)GlcNAc,-0.289
same,glycan array binding signal (z-score),Gal6S(b1-3)GlcNAc6S,-0.29
same,glycan array binding signal (z-score),Gal6S(b1-4)Glc,-0.29
same,glycan array binding signal (z-score),Gal6S(b1-4)Glc6S,-0.265
same,glycan array binding signal (z-score),Gal6S(b1-4)GlcNAc,-0.277
same,glycan array binding signal (z-score),Gal6S(b1-4)GlcNAc6S,-0.283
same,glycan array binding signal (z-score),GalNAc(a1-3)Gal,-0.284
same,glycan array binding signal (z-score),GalNAc(a1-3)GalNAc,-0.275
same,glycan array binding signal (z-score),[16],-0.291
same,glycan array binding signal (z-score),[17],-0.279
same,glycan array binding signal (z-score),GalNAc(b1-3)Gal,-0.297
same,glycan array binding signal (z-score),[18],-0.294
same,glycan array binding signal (z-score),[19],-0.282
same,glycan array binding signal (z-score),[20],-0.281
same,glycan array binding signal (z-score),GalNAc(b1-3)GalNAc,-0.235
same,glycan array binding signal (z-score),GalNAc(b1-3)GlcNAc,-0.264
same,glycan array binding signal (z-score),GalNAc(b1-4)Gal(b1-4)Glc,-0.265
